The list shows a part of the results.
B1: chr7:137879121:137879144:-|3pUTR|ENSG00000182158|msi1_unk|FALSE|overlapping (ssRNA)
RNA: GGGAGUUCUACAGUCCGACGAUCUAAUCCCCAACCUACUUUUAGUUUUUUUGUUUUUUUUUUAUGGUUAAAAGUAACUUUUGUAGUUUAAAAAAAUCUUUCCUCUUUCAUAUAAAUAAGAAGUGGAAAUUGCCUUUUUAUUGUCAACAGAGGAUUGAGCAUCA
B2: chr10:92030471:92030572:+|3pUTR|ENSG00000095564|unk|total|mutant (ssRNA)
RNA: GGGAGUUCUACAGUCCGACGAUCUAUUUUUUUAUUAACUAUUUAUUUGCCCGUUCCAUAAACCAGCUCUUUAACACCGCUUACCGUAAUUGAUAUUUUCUCCGAAUAAGUACAGAGCAAUAUAUCAUUAAAGGGCUAUGAAGGCAACAGAGGAUUGAGCAUCA
B3: chr7:101138926:101139078:+|3pUTR|ENSG00000106366|msi1|total|mutant (ssRNA)
RNA: GGGAGUUCUACAGUCCGACGAUCUAUUUUAAAGACCAAUUUAUGGGAGAAUUGCACACAGAUGUGAAAUGAAUGUAAUCUAACCGAAGCCUAAUCAGCCCACCAUGUUCUCCACUGAAAAAUCCUCUUUCUUUGGGGUUUUUCCAACAGAGGAUUGAGCAUCA
B4: chr1:246907611:246907713:-|CDS|ENSG00000153207|unk|FALSE|bound_elsewhere (ssRNA)
RNA: GGGAGUUCUACAGUCCGACGAUCUGAAGUACCACACAUUAGAGAAAGUGUAAUGAGACAAGGGCGCCAUCUGUGUUUCCAGUUAGUAAGUCCAACAGGAACAGCUGUUUCAACUCUUAGUUACAUAAGCAGGACAAAUCAGCUCAACAGAGGAUUGAGCAUCA
B5: chr6:26414640:26414744:+|3pUTR|ENSG00000026950|unk|total|mutant (ssRNA)
RNA: GGGAGUUCUACAGUCCGACGAUCCAGGCAGAGCAAAUACCCCCGAGAUUCUCUGUGAUACCGGAAAUUUGGAUGAAGGGAGCCCGAAGAAAUACAGGGAUUUUUUUUUUUUUUUAAGAUGGAGUCUUACUCUGUUGCCCGGCUCAACAGAGGAUUGAGCAUCA
B6: chr7:139079551:139079652:-|CDS|ENSG00000105939|unk|FALSE|bound_elsewhere (ssRNA)
RNA: GGGAGUUCUACAGUCCGACGAUCAAUGCUGAUGGAGUGGCCACAGAUAUAACUUCUACCAGAUCCUUAAAUUACAAAAGCACUAGCAGCGGUCACAGAGAAAUAUCAUCACCUAGGAUUCAGGAUGCUGGACCUGCUUCCCGACAACAGAGGAUUGAGCAUCA
B7: chr1:162785649:162785750:+|3pUTR|ENSG00000162733|unk|FALSE|unique (ssRNA)
RNA: GGGAGUUCUACAGUCCGACGAUCUGAAUGUUGUUUUUUUGAAUGAACAUAAGAUAGAAACAAAAACUUCUCAUCCAGUUAACUAGAGUGAAUGUAGGGAGAAUUGUUUUGCUUGUAACAUGGAGAGUUUAUUUUCAAGUGAGGCAACAGAGGAUUGAGCAUCA
B8: ENSG00000169762:stop:overlap|stop_codon|ENSG00000169762|stop_codon|NA|stop_codon (ssRNA)
RNA: GGGAGUUCUACAGUCCGACGAUCUCCUCACUUUGCCUUGCUAUGGCUUAAGACCGAAGGGAGGAGCACUUUCACUUCCUUUAUAGAAUGGAAUGUGGUGGCACAGGGACUCCUUGUGGGACAGACGUUUGCUUCAGCCUGCCCCAACAGAGGAUUGAGCAUCA
B9: chr4:169989555:169989656:-|3pUTR|ENSG00000198948|unk|FALSE|unique (ssRNA)
RNA: GGGAGUUCUACAGUCCGACGAUCUUGGACAACUCCCUUCCUCUCUCUGGGAUUUAAUCUUUUUCAUCUGUAAAAUAUGCAGGUAGUACUCGAGGGUCUACAGGAUCCCUUCUAGUUGAAACAUUUAUAGUUCACAGAAAGUUUCAACAGAGGAUUGAGCAUCA
B10: chr7:16791810:16792950:-|three_prime_utr|ENSG00000106541|control|control|control (ssRNA)
RNA: GGGAGUUCUACAGUCCGACGAUCAGCCCUUCUGUCUGUCAGGCCUUGAGACUUGAAACCAGAAGAAGUGUGAGAAGACUGGCUAGUGUGGAAGCAUAGUGAACACACUGAUUAGGUUAUGGUUUAAUGUUACAACAACUAUUUCAACAGAGGAUUGAGCAUCA
B11: chr1:11013840:11013957:+|CDS|ENSG00000120948|unk|FALSE|unique (ssRNA)
RNA: GGGAGUUCUACAGUCCGACGAUCGGCGUGUGGGCUUCGCUACAGGAAUCCAGUGUCUCAGUGUAUGAGAGGUGUCCGGCUGGUAGAAGGAAUUCUGCAUGCCCCAGAUGCUGGCUGGGGAAAUCUGGUGUAUGUUGUCAACUACAACAGAGGAUUGAGCAUCA
B12: chr1:92323927:92324037:+|CDS|ENSG00000122484|unk|total|mutant (ssRNA)
RNA: GGGAGUUCUACAGUCCGACGAUCAGUGCAGAGCAUUUUAAGAGAAAAUUUGCCAAAUCAAACCAAGUGUCCCGGUCAGUGUCCCGUUCAGUGCAGGUGUGUCCUGAAGUUGGAAAGAGAAACUUACUUAAAGUUUUGAAGGAGCAACAGAGGAUUGAGCAUCA
B13: chr21:41885111:41889123:-|three_prime_utr|ENSG00000157617|control|control|control (ssRNA)
RNA: GGGAGUUCUACAGUCCGACGAUCCCAACUUGCCACCAGAUGCUAAAUGAGACUUGACAGCUGCAGAGCUUGGGCUGUGCUCAUAGCUAAGGGUUAGGGUUCAAUAUUAGAAGGAGAUUAACAUUAUAAGUGAAAUAAUAUGCUCAACAGAGGAUUGAGCAUCA
B14: chr13:109754583:109754684:-|3pUTR|ENSG00000185950|msi1|FALSE|unique (ssRNA)
RNA: GGGAGUUCUACAGUCCGACGAUCGAUCUCCCUGAACAUUUUUAAGGUUUUACUUUUCUGAAAUUAUACAUCACAGCAGUGCAUAGGCCAUAUAAUGUUAGCUGGAAGGUCAAUUUCAGUGUAUGAUAUACUUUAUUAAGAUGUCAACAGAGGAUUGAGCAUCA

Each binder was assayed against MSI1 full-length (mouse, UniProt Q61474 1-362) (assay: nsRBNS (natural sequence RNA bind-n-seq); RBNS binding buffer (assumed for nsRBNS): 25 mM Tris pH 7.5, 150 mM KCl, 3 mM MgCl2, 0.01% Triton X-100, 500 ug/ml BSA, 20 U/ml SUPERase-In, 4 C; UNK is unkempt and MSI1 is Musashi-1; names of the RNAs are library labels; protein concentration not given here; high values mean tight binding).
UniProt Q61474, sequence (Q61474 whole entry): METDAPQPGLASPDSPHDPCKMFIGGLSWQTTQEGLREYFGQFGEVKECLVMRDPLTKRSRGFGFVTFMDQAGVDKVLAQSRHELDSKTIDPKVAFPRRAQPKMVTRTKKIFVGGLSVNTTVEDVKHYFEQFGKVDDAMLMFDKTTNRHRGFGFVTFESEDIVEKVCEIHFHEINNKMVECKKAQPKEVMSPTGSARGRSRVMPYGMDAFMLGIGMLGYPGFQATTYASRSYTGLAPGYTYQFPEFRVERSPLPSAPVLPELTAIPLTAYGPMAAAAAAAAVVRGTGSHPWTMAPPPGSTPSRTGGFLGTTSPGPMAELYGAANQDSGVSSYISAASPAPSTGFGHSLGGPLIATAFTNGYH
For B1, the binding signal was 12 enrichment R.
B2 gave a binding signal of 27.9 enrichment R.
Work on B3 yielded a binding signal of 0.403 enrichment R.
Work on B4 yielded a binding signal of 1.54 enrichment R.
Binder B5 has a binding signal of 0.532 enrichment R.
Binder B6 has a binding signal of 1.62 enrichment R.
For B7, the binding signal was 2.65 enrichment R.
With B8 the binding signal was 0.321 enrichment R.
Work on B9 yielded a binding signal of 0.869 enrichment R.
B10 gave a binding signal of 1.19 enrichment R.
Work on B11 yielded a binding signal of 0.5 enrichment R.
With B12 the binding signal was 0.422 enrichment R.
B13 was tested, and the binding signal was 5.8 enrichment R.
For B14, the binding signal was 0.697 enrichment R.
